Results taken from PubChem BioAssay AID488969 (Vanderbilt High Throughput Screening Facility, 2010).
The full ranking holds about 110,000 compounds; the median of “z-score” is about -0.1, and the highest 2% start at about 2. The list shows a part of the results. Active and inactive are the calls of the source.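 Rule for the calls: active = z-score in the third read window above 3 or below -3; inactive = the rest.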

These compounds were tested against Metabotropic glutamate receptor 8 (Rattus norvegicus) (UniProt P70579) (assay: mGluR8 Gi/Go-coupled signaling modulation – cell-based, rat, thallium flux, HTS, primary screen (AID 488969)). Conditions: HEK293 rat mGluR8, GIRK (G protein-gated inwardly rectifying potassium channel) thallium flux, FluoZin2; at 10 µM; stronger effect = higher value; submaximal glutamate (EC20) added with thallium.
Chain of UniProt P70579 (P70579 whole entry, looked up): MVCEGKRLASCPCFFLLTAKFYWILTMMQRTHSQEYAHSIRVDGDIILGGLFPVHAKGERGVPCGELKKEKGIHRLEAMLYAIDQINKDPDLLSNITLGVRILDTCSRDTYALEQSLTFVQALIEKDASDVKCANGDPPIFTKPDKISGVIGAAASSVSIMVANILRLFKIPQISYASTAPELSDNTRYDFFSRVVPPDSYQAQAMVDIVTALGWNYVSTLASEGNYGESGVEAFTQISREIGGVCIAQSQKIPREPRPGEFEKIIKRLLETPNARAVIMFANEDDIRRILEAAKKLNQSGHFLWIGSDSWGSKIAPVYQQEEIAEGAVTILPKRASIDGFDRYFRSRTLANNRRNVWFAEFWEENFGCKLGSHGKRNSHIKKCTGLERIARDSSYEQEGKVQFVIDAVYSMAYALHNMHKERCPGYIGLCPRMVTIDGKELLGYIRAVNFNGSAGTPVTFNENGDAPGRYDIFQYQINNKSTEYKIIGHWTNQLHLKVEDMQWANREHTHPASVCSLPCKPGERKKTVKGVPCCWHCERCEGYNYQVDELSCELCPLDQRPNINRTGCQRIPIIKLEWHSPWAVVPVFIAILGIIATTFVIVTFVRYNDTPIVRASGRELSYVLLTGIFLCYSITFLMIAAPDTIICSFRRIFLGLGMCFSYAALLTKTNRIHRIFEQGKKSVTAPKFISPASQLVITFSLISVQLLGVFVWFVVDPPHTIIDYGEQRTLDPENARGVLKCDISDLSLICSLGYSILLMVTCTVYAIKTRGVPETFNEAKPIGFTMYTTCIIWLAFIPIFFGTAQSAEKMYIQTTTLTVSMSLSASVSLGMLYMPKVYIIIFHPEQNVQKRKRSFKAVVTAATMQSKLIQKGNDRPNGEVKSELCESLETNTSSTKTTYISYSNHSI

Structure (SMILES) | z-score
CC(C)(C)c1ccc(S(=O)(=O)Nc2cccc(C3OCCCO3)c2)cc1 | -0.207
O=C(CSc1nnc(-c2ccccc2Cl)o1)Oc1ccc(Br)cc1 | -0.585
CCOC(=O)c1sc(NC(=O)c2cc3n(n2)C(C(F)(F)F)CC(c2cccs2)N3)c(C(=O)OCC)c1C (configuration not stated) | -0.126
Cc1ccc(CNC(=O)Cn2cccc2C(=O)c2ccccc2)cc1 | 0.478
CCS(=O)(=O)N1CCCC(C(=O)NCCCOC)C1 (configuration not stated) | 1.06
CCOC(=O)c1cnc(SCc2ccc(C)cc2)nc1N | 0.367
CCCCn1c(SCc2nnc(-c3ccccc3)o2)nc2c1c(=O)n(C)c(=O)n2C | -1.34
Cc1ccc(Nc2nnns2)cc1 | 0.788
CCOC(=O)c1cnc(SC)nc1Oc1cccc(NS(=O)(=O)c2ccccc2)c1 | 1.2
O=C(NC(=S)Nc1ccccc1Cl)c1csnn1 | active: 11.5
CSc1nc(C)cc(Oc2ccc(=O)n(C)n2)n1 | -0.396
Brc1ccc(-c2nc(N/N=C/c3cccnc3)c3ccccc3n2)cc1 | 0.00562
CCOC(=O)COc1cc(Br)c(C2NC(=O)NC(C)=C2C(C)=O)cc1OCC (configuration not stated) | -0.148
Cc1ccc(C)c(S(=O)(=O)NCc2ccc(C(=O)N3CC(C)OC(C)C3)cc2)c1 (configuration not stated) | -0.226
CNC(=S)N1CCN(C(=O)C2CCCO2)CC1 (configuration not stated) | -0.25
Cc1csc(NC(=O)CSc2nc3ccccc3s2)n1 | -0.293
Cc1ccc(C)n1CCN1CCN(CC(=O)Nc2ccc(S(N)(=O)=O)cc2)CC1 | -0.714
Cc1cc(NC(=O)CSc2nc(C(C)C)nc3ccccc23)no1 | 0.316
CC(C)COCC1CC2(CC(C)C(=O)CC2=O)C(=O)O1 (configuration not stated) | -0.209
CCOc1ccccc1C1CC(=O)Nc2cc3c(cc21)OCCO3 (configuration not stated) | -1.11
Cc1ccc(Oc2ccc(/C=N/O)cn2)cc1 | -0.186
CCCCCCNC(=O)CSc1nccn1Cc1ccccc1 | -0.493
N#C/C(=C/c1ccc(N2CCCCC2)o1)C(=O)Nc1ccc2ccccc2c1 | 0.00045

Structure (SMILES) | z-score
COCCCN1CN(S(=O)(=O)c2ccc(Cl)cc2)c2nc3ccccc3nc21 | -1.48
COc1cc(NC(=O)Nc2ccccc2OC)c(OC)cc1NC(=O)CN1CCCCC1 | -0.219
Cc1c([C@H]2[C@@H](CC#N)C2(C)C)c2ccccc2n1C | -0.384
N=c1c(C(=O)NC2CCCC2)cc2c(=O)n3ccccc3nc2n1CCN1CCOCC1 | -0.359
Cc1ccc(CN2C(=O)CCC2(C)C(=O)NCc2cccnc2)cc1 (configuration not stated) | -0.221
CCCCNC(=O)/C(C#N)=C/c1cccnc1 | -0.197
C=CCn1c(SCC(=O)Nc2ccccc2OC)nnc1-c1ccccn1 | 0.0118
COC(=O)Cc1csc(Nc2c(C)n(C)n(-c3ccccc3)c2=O)n1 | 0.312
CCC(C)c1ccccc1NC(=O)C1CCCO1 (configuration not stated) | -0.152
CSCC[C@H](NC(=O)OC(C)(C)C)C(=O)N/N=C/c1c(C)[nH]c(=O)[nH]c1=O | 0.0291
CCCCn1nnnc1NCc1ccc(N2CCCC2)cc1 | 0.182
Cc1ccc(NC(=O)c2ccc3ccccc3n2)nc1 | -0.363
O=C(NCCNC(=O)c1ccc(Br)o1)c1ccc(Br)o1 | 0.887
Cc1ccccc1N1C(=O)c2cccc3c(N(C)CCO)ccc(c23)C1=O | -0.299
Cc1cccc(OC(=O)Cn2c(C(F)(F)F)nc3ccccc32)c1 | -0.253
O=C(CCn1c(=O)sc2ccccc21)NCCCn1ccnc1 | -0.0979
CCN(CC)S(=O)(=O)c1ccc(Cl)c(C(=O)Nc2cc(C)nn2-c2ccccc2C(F)(F)F)c1 | -0.153
O=C1C=C(c2ccc(Cl)cc2)C(=O)N1Nc1ccccc1 | -0.198
COc1ccc(-c2nnc(Sc3nc4ccccc4o3)c3ccccc23)cc1 | -0.311
Cc1ccc(CN2C(=O)c3ccccc3C2C(=O)NCC2CCCO2)cc1 (configuration not stated) | -0.147
Cc1ccccc1-c1nc2ccccc2[nH]1 | 0.0575
Nc1cc(N)nc(SCC(=O)N2CCc3ccccc32)n1 | -0.0748
COC(=O)c1ccc2c(=O)n(CC3CCCO3)c(=S)[nH]c2c1 (configuration not stated) | active: 7.72

Structure (SMILES) | z-score
CCn1c(Cc2ccccc2)nnc1SCC(=O)Nc1ccc(N2CCOCC2)c(Cl)c1 | -0.645
COc1ccccc1NC(=O)C(=O)NCC1COc2ccccc2O1 (configuration not stated) | -0.118
CC1CCCN(C(=O)Cn2cnc3c2c(=O)n(C)c(=O)n3C)C1 (configuration not stated) | 0.0575
O=C(CCn1cnc2ccccc21)N/N=C/c1ccccc1O | 0.397
CCN(CC)S(=O)(=O)c1ccc(C(=O)NNC(=O)c2cccs2)cc1 | -0.0626
CCn1c(CNC(=O)COc2ccc(C(C)C)cc2)nnc1SCC(=O)Nc1cc(F)ccc1C | -0.442
Cc1cc(S(=O)(=O)N2CCN(Cc3ccccc3)CC2)c(C)s1 | -1.48
COC(=O)c1ccc(S(N)(=O)=O)o1 | -0.204
O=c1[nH]c(N2CCc3ccccc32)nc2c1CCCC2 | 0.261
N#Cc1c(NC(=O)c2cc(C3CC3)on2)sc2c1CCC2 | 1.73
NC(=O)C1CCN(c2nnnn2-c2ccccc2)CC1 | -0.231
NS(=O)(=O)c1ccc(CNC(=O)NC2(c3ccccc3)CC2)cc1 | 0.359
COC(=O)C1=C(C)OC(N)=C(C#N)C1c1cccnc1 (configuration not stated) | 0.264
CC1CC(=O)c2cn3c(nc2C1)nc1ccccc13 (configuration not stated) | -0.863
CCC(c1nnnn1CS(=O)(=O)c1ccc(C)cc1)N1CCN(c2nc3ccccc3s2)CC1 (configuration not stated) | -0.234
CCOC(=O)c1cc2n(c1N)-c1ccccc1C2=O | active: 5.13
CC(=O)Nc1ccc(S(=O)(=O)NCc2ccccn2)cc1 | 0.0367
O=C(Nc1cccnc1)c1ccc(F)cc1 | 0.112
O=S(=O)(NCC1CCCO1)c1cc(Cl)ccc1Br (configuration not stated) | -0.128
COc1ccc(CCn2c(C)nc3c(c(=O)c4ccccc4n3C)c2=O)cc1 | -0.439
O=C(/C=C/c1ccc(F)cc1)N1CCCN(C(=O)/C=C/c2ccc(F)cc2)CC1 | -0.668
COc1ccc(OCc2ccc(C(=O)O)cc2)cc1 | -0.107
CN(C=[N+](C)C)c1cccc2c1C(=O)c1ccccc1C2=O | -0.254

Structure (SMILES) | z-score
Cc1ccc(-c2c3c(=O)n(C)c(=O)n(C)c3cn2Cc2ccccc2)cc1 | -1.27
C/C(Cl)=C\CNC(C)c1ccccc1 (configuration not stated) | -0.455
N#Cc1c(N)nc(SCc2ccccn2)c(C#N)c1-c1cccs1 | -0.851
NC(=O)c1ccccc1N/C=C/C(=O)c1ccc(F)cc1 | 0.16
O=C(NCC(c1cccnc1)N1CCN(c2ccccc2F)CC1)C1CCCCC1 (configuration not stated) | 0.0811
COc1ccc(Cl)cc1-n1c(C)cc(C=O)c1C | -0.55
CC/C(C)=N/Nc1nc2sc3c(c2c(=O)[nH]1)CC(C)(C)OC3 | -0.189
COc1cccc(CNc2nn[nH]n2)c1OC | -0.0527
CC(Sc1nnc(-c2ccccc2Br)n1-c1cccc(C(F)(F)F)c1)C(N)=O (configuration not stated) | -0.394
CCOCCCNC(=S)Nc1ccc2nc(N3CCCC3)cc(C)c2c1 | -0.106
O=C(NCCNC(=O)C1CC2CCC1C2)C1CC2CCC1C2 (configuration not stated) | 0.248
CCOC(=O)C1CCCN(C(=O)/C=C/c2cccc([N+](=O)[O-])c2)C1 (configuration not stated) | -0.328
O=C(CSc1nnc(-c2ccc(Cl)cc2)n1-c1ccc(Cl)cc1)N/N=C/c1ccco1 | -0.696
Cc1ccc(C(=O)NCc2ccco2)cc1S(=O)(=O)Nc1cccc(C)c1C | -0.819
N#Cc1cc(C(=O)c2ccccc2OCC(=O)Nc2ccccc2)cn(C2CCCCC2)c1=O | -0.273
COc1ccc([C@H]2[C@H](C(C)=O)N3N=Cc4ccccc4C3C23C(=O)OC(C)(C)OC3=O)cc1 (some centres not stated) | 0.0618
COc1ccc(C)cc1NC(=O)CN(C)S(=O)(=O)c1cccs1 | -0.217
CCn1c(N)c(C(=O)NCc2cccnc2)sc1=S | -0.0381
CCN1CCN(C(=O)Nc2ccc(Cc3ccc(NC(=O)N4CCN(CC)CC4)cc3)cc2)CC1 | -0.0783
COc1ccc(S(=O)(=O)N2CCCC2C(=O)Nn2cnnc2)cc1 (configuration not stated) | 0.0765
CCOc1cc(NC(=O)c2ccco2)c(OCC)cc1NC(=O)Cc1cccc(OC)c1 | -0.676
S=c1[nH]nc(Cc2cccc3ccccc23)n1-c1ccccc1 | -0.324
CCc1cccc(C)c1N(C(=O)Cn1c(CO)nc2ccccc21)C(C)COC (configuration not stated) | -0.0319

Structure (SMILES) | z-score
COc1ccc(NC(=O)CCCn2c(=O)oc3ccccc32)cc1Cl | -0.188
CC(=O)N1CCN=C1SCc1ccc(F)cc1 | 0.0688
Cc1cc(C(=O)COc2ccccc2Cl)c(C)n1-c1ccc2c(c1)OCO2 | -0.101
CCOc1ccc(C2Nc3cccc4cccc(c34)N2)cc1OC | -0.132
COC(=O)C1C(=O)C2=C(CC1C)NC(=O)CC2c1ccc(O)c(OC)c1 (configuration not stated) | -0.0388
CC1CN(C2CCN(S(=O)(=O)Cc3ccccc3)CC2)CC(C)O1 (configuration not stated) | -0.223
CN1/C(=C\C(=O)Nc2ccc(F)cc2)C(C)(C)c2ccccc21 | -0.216
O=C1CN(C(=O)c2cc3ccccc3o2)c2ccccc2N1 | -0.144
COc1ccc(CCN2C(=S)NC3CC2(C)Oc2ccc([N+](=O)[O-])cc23)cc1OC (configuration not stated) | -0.313
Cc1nc(SCC(=O)Nc2ccc3c(c2)OCO3)c(C#N)c2c1CCCC2 | -0.476
Cc1ccc(C2C(C#N)=C(N)N(N(C)C)C3=C2C(=O)CCC3)cc1 (configuration not stated) | -0.179
O=C(/C=C/c1cccs1)Nc1cccc(NC(=O)/C=C/c2cccs2)n1 | -0.703
CCOC(=O)NC(Nc1ccc(OC)cc1)(C(F)(F)F)C(F)(F)F | 0.384
Cc1ccc(N=C(c2cccs2)N2CCOCC2)cc1 | -0.444
COC(=O)c1ccccc1NC(=O)Nc1cnccn1 | 1.85
CCc1sc2nc(SCC(=O)Nc3cc(C)on3)n(-c3cccc(OC)c3)c(=O)c2c1C | -0.252
CC(OC(=O)CN(C)S(=O)(=O)c1ccc(Cl)cc1)C(=O)Nc1ncc(Cl)cc1Cl (configuration not stated) | -0.285
CCc1c(C(=O)Nc2ccc(OC)cc2)[nH]c(C)c1C(C)=O | -0.234
O=[N+]([O-])c1cc(Cl)ccc1N1CCN(c2cccc(C(F)(F)F)c2)CC1 | -0.145
CCC(C(=O)NC1CCCC1)N(C(=O)c1snc(C(N)=O)c1N)c1ccc2c(c1)OCCO2 (configuration not stated) | 0.572
